# Reference: the supplement of paper PMC11876631
# Numbering of substitutions follows the chain as printed. Numbers in names are those of the source. ± gives the standard deviation of the averaged measurements. Laboratory Escherichia coli strains with one amino-acid change in an essential protein, pooled on minimal glucose agar with carbenicillin or gentamicin at twice the control MIC (plus kanamycin and chloramphenicol for the plasmids), 48 h. Fold change of barcode share against drug-free plates; higher = less susceptible. Active = above 20 in both replicates (the paper's putatively resistant). '<' = one read or none on drug, '>' = one read or none on a drug-free plate. Shares are relative, so most strains fall below 1 when a few take over. Listed are strains with at least 15 reads on both drug-free plates, and hits; most hits rest on fewer reference reads. Replicate rank correlation about 0.5. Edits are read from barcodes.
# B1: secY I61W (protein)
# chain: MAKQPGLDFQSAKGGLGELKRRLLFVIGALIVFRIGSFIPIPGIDAAVLAKLLEQQRGTIWEMFNMFSGGALSRASIFALGIMPYISASIIIQLLTVVHPTLAEIKKEGESGRRKISQYTRYGTLVLAIFQSIGIATGLPNMPGMQGLVINPGFAFYFTAVVSLVTGTMFLMWLGEQITERGIGNGISIIIFAGIVAGLPPAIAHTIEQARQGDLHFLVLLLVAVLVFAVTFFVVFVERGQRRIVVNYAKRQQGRRVYAAQSTHLPLKVNMAGVIPAIFASSIILFPATIASWFGGGTGWNWLTTISLYLQPGQPLYVLLYASAIIFFCFFYTALVFNPRETADNLKKSGAFVPGIRPGEQTAKYIDKVMTRLTLVGALYITFICLIPEFMRDAMKVPFYFGGTSLLIVVVVIMDFMAQVQTLMMSSQYESALKKANLKGYGR
# B2: secY I61Q (protein)
# chain: B1 chain with W61Q
# B3: accD V121W (protein)
# chain: MSWIERIKSNITPTRKASIPEGVWTKCDSCGQVLYRAELERNLEVCPKCDHHMRMTARNRLHSLLDEGSLVELGSELEPKDVLKFRDSKKYKDRLASAQKETGEKDALVVMKGTLYGMPVWAAAFEFAFMGGSMGSVVGARFVRAVEQALEDNCPLICFSASGGARMQEALMSLMQMAKTSAALAKMQERGLPYISVLTDPTMGGVSASFAMLGDLNIAEPKALIGFAGPRVIEQTVREKLPPGFQRSEFLIEKGAIDMIVRRPEMRLKLASILAKLMNLPAPNPEAPREGVVVPPVPDQEPEA
# B4: suhB V82A (protein)
# chain: MHPMLNIAVRAARKAGNLIAKNYETPDAVEASQKGSNDFVTNVDKAAEAVIIDTIRKSYPQHTIITEESGELEGTDQDVQWAIDPLDGTTNFIKRLPHFAVSIAVRIKGRTEVAVVYDPMRNELFTATRGQGAQLNGYRLRGSTARDLDGTILATGFPFKAKQYATTYINIVGKLFNECADFRRTGSAALDLAYVAAGRVDGFFEIGLRPWDFAAGELLVREAGGIVSDFTGGHNYMLTGNIVAGNPRVVKAMLANMRDELSDALKR
# B5: tilS L111W (protein)
# chain: MTLTLNRQLLTSRQILVAFSGGLDSTVLLHQLVQWRTENPGVALRAIHVHHGLSANADAWVTHCENVCQQWQVPLVVERVQLAQEGLGIEAQARQARYQAFARTLLPGEVWVTAQHLDDQCETFLLALKRGSGPAGLSAMAEVSEFAGTRLIRPLLARTRGELVQWARQYDLRWIEDESNQDDSYDRNFLRLRVVPLLQQRWPHFAEATARSAALCAEQESLLDELLADDLAHCQSPQGTLQIVPMLAMSDARRAAIIRRWLAGQNAPMPSRDALVRIWQEVALAREDASPCLRLGAFEIRRYQSQLWWIKSVTGQSENIVPWQTWLQPLELPAGLGSVQLNAGGDIRPPRADEAVSVRFKAPGLLHIVGRNGGRKLKKIWQELGVPPWLRDTTPLLFYGETLIAAAGVFVTQEGVAEGENGVSFVWQKTLS
# B6: tilS L397A (protein)
# chain: B5 chain with W111L, L397A
# B7: tmk V54A (protein)
# chain: MRSKYIVIEGLEGAGKTTARNVVVETLEQLGIRDMVFTREPGGTQLAEKLRSLALDIKSVGDEVITDKAEVLMFYAARVQLVETVIKPALANGTWVIGDRHDLSTQAYQGGGRGIDQHMLATLRDAVLGDFRPDLTLYLDVTPEVGLKRARARGELDRIEQESFDFFNRTRARYLELAAQDKSIHTIDATQPLEAVMDAIRTTVTHWVKELDA
# Biological target: Escherichia coli (laboratory strain)
# Experiment: barcode share on antibiotic plates over drug-free plates; higher = less susceptible
# Settings: antibiotic: gentamicin; 2× MIC (MIC 0.45 µg/mL)
# Experimental: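 A pool of E. coli strains, each edited to carry one amino-acid change in an essential protein, was grown for 48 h on minimal glucose agar with or without antibiotic; strain barcodes were sequenced; mean of two replicates.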
row,Protein,fold change of barcode share
1,B1,< 0.0176
2,B2,< 0.0171
3,B3,0.00938 ± 0.0036
4,B4,< 0.0234
5,B5,< 0.0142
6,B6,< 0.00898
7,B7,< 0.0215
